The source of these data is ChEMBL document CHEMBL4888484, “Replenishing the malaria drug discovery pipeline: Screening and hit evaluation of the MMV Hit Generation Library 1 (HGL1) against asexual blood stage Plasmodium falciparum ,using a nano luciferase reporter read-out” (2022).

Structures are written as SMILES. Among all 150,000 compounds or so, about 540 (0.36%) showed an effect of 50% or more. The list shows a part of the results.

The test system of the assay is Plasmodium falciparum. The experiment in a line: Primary screen in NF54 nanoGlo assay, in single point, at 2uM, 72h; a lower Z score goes with more inhibition. To be noted: timepoint 72 hour. Format: functional, Erythrocyte.
For the compound `COc1ccc(/N=C2/[C@@H](N3CCN(C)CC3)C3(CCCCC3)C(=O)N2c2ccccc2)cc1`, the “% Inhibition” value is listed as -29% and the Z score amounted to 3.35.
Taken in the same sequence, the figures for `C[C@@H](N)c1nc(-c2ccc(F)c(F)c2)nn1CC(C)(C)O` were -6% and 0.89.
Taken in the same sequence, the figures for `CC(C)(CNC(=O)c1cccs1)CNC(=O)c1cccs1` were -11% and 2.
Taken in the same sequence, the figures for `O=C1CCCN1c1ccc(NCc2cccc(O)c2)cc1F` were -2% and 0.32.
Regarding `Cc1nc(O)cc(CN2CCOCC2)n1`, the “% Inhibition” value is recorded as -18% and the Z score is reported as 3.45.
Taken in the same sequence, the figures for `Cc1nnc(Cn2ccc(-c3cccc(-c4cnn5cccnc45)c3)n2)o1` were -6% and 1.21.
Taken in the same sequence, the figures for `C[C@H](Nc1ccc2c(c1)C(=O)NC2)c1ccc(S(C)(=O)=O)cc1` were 1% and -0.09.
Taken in the same sequence, the figures for `CC(C)c1cc(N2CCC[C@H](CS(C)(=O)=O)C2)nc(N)n1` were 2% and -0.23.
As to `COC(=O)c1cccc(S(=O)(=O)N2CCC[C@H](c3ccnc(N)n3)C2)c1C`, the “% Inhibition” value was -9% and the Z score amounted to 1.04.
For `O=c1c(NCc2ccc(Cl)cc2)nc2ccncc2n1Cc1ccccc1`, the “% Inhibition” value turned out to be 31% and the Z score is recorded as -3.01.
Taken in the same sequence, the figures for `Cn1cc(C(=O)N2CCC(Cc3ccc(F)c(F)c3)CC2)c(=O)[nH]c1=O` were -2% and 0.33.
As for `CC(C)CN(CCC(=O)NC1CC1)C(=O)c1cc(-c2ccccc2Cl)on1`, the “% Inhibition” value is 3% and the Z score is -0.29.
Turning to `CC(C)c1ccc(NC(=O)C2[C@@H]3C=C[C@]4(O3)C(C(=O)NC3CCCCC3C)N(Cc3cccnc3)C(=O)[C@H]24)cc1` (some centres not stated), the “% Inhibition” value came out at 19% and the Z score was -3.04.
Taken in the same sequence, the figures for `CCn1cc([C@H](CC(=O)NCCCN2CCOCC2)c2cc(OC)cc(OC)c2)c2ccccc21` were -23% and 2.31.
Taken in the same sequence, the figures for `O=C(NCc1cnc2n1CCOC2)c1cnn(CCC(F)(F)F)c1` were -5% and 0.62.
Taken in the same sequence, the figures for `CC(C)COC[C@@H](O)CN1CCN(Cc2nc(C(=O)Nc3ccc4c(c3)CCC4)co2)CC1` were -16% and 2.93.
For the compound `CCC(C)C(NS(=O)(=O)CC1CCCCC1)C(N)=O` (configuration not stated), the “% Inhibition” value is -4% and the Z score worked out at 0.69.
Taken in the same sequence, the figures for `CC(C)COc1ccc(NC(=O)N2C[C@H]3C[C@H](O)[C@H](O)C[C@H]3C2)cc1` were -16% and 1.6.
Turning to `COCc1noc(C[C@H]2CCOC3(CCN(C(=O)c4n[nH]c5ccccc45)CC3)C2)n1`, the “% Inhibition” value worked out at 5% and the Z score is given as -0.74.
For the compound `CCc1n[nH]c(C(=O)N2CCC3(CC2)C[C@H](c2ccccc2)CN3C)c1C`, the “% Inhibition” value was found to be 3% and the Z score is on record as -0.6.
For the compound `COc1ccccc1C[C@H]1CCCN(C(=O)Cc2cc(C)on2)C1`, the “% Inhibition” value was 1% and the Z score is -0.24.
Taken in the same sequence, the figures for `CCN1CCN(CC(=O)N(CCc2ccccc2)C2CCCCC2)CC1` were -5% and 1.06.
Taken in the same sequence, the figures for `CCc1ccc(C(=O)N(Cc2ccco2)C2CC2)o1` were -9% and 1.32.
Consider `CC(C)c1csc(-c2nc([C@H]3CCOC3)no2)n1`, for which the “% Inhibition” value is reported as -6% and the Z score is listed as 1.22.
Consider `CCOc1ncccc1CNC(=O)c1ccc2c(c1)OCO2`, for which the “% Inhibition” value is -6% and the Z score was determined as 0.58.
Taken in the same sequence, the figures for `CC1CN(C(=O)c2n[nH]c3ccccc23)CC(C)O1` (configuration not stated) were 33% and -0.86.
Taken in the same sequence, the figures for `CNC(=O)c1nsc(C(=O)N2CCN(c3ccc(Cl)cc3)CC2)c1N` were -12% and 1.42.
For the compound `CCOC(C)C(=O)OC1CCCN(C(=O)OC(C)(C)C)C1` (configuration not stated), the “% Inhibition” value is listed as -13% and the Z score is 1.95.
Taken in the same sequence, the figures for `COc1ccc2oc(CNC(=O)N(C)CC3CCOCC3)nc2c1` were -2% and 0.33.
Taken in the same sequence, the figures for `Cc1ccc2[nH]c([C@H](C)NC(=O)c3cnc(-c4ccccn4)nc3O)nc2c1` were -13% and 1.32.
Taken in the same sequence, the figures for `Cc1nc2c(c(N3CCC(NC(=O)c4ccc5[nH]cnc5c4)CC3)n1)CCCC2` were -5% and 0.63.
As for `CC(C)[C@H](NC(=O)OC(C)(C)C)C(=O)N1CCCN(C)CC1`, the “% Inhibition” value is -9% and the Z score is listed as 0.72.
In the case of `C[C@@H]1Oc2cc(S(=O)(=O)N3CCN(C(=O)c4ccnn4C)CC3)c(Cl)cc2NC1=O`, the “% Inhibition” value amounted to 1% and the Z score was -0.14.
Taken in the same sequence, the figures for `CCN(C(=O)c1nn(CC2CC2)c2c1COCC2)C(C)C` were 5% and -0.61.
Regarding `COc1ccccc1NC(=O)C(=O)N1CCO[C@H](c2ccccc2)C1`, the “% Inhibition” value is given as 5% and the Z score is -0.52.
Taken in the same sequence, the figures for `COc1cc2c(cc1OC)C1(CCCC1)CN(C(C)=O)C2` were -8% and 1.1.
For `O=C(C1CCS(=O)(=O)C1)N1CCCC1CC1CC2CCC1C2` (configuration not stated), the “% Inhibition” value is reported as -5% and the Z score is 0.59.
Taken in the same sequence, the figures for `O=C(c1ccccc1-c1ccccc1)N1C[C@@H](CN2CCCCCC2)[C@@H](CO)C1` were -16% and 3.01.
In the case of `O[C@H]1CN[C@H](c2nc(-c3c[nH]c4ccccc34)nn2CC(F)(F)F)C1`, the “% Inhibition” value is reported as -9% and the Z score amounted to 1.61.
Turning to `OCc1cn(CCCN[C@@H](Cc2ccc(Br)cc2)C2CCC2)nn1`, the “% Inhibition” value is listed as -10% and the Z score stood at 1.85.
Taken in the same sequence, the figures for `CCNC(=O)N1CCC[C@H](Cn2cnc3ccccc32)C1` were -8% and 1.54.

As a reminder, the % Inhibition is the relative decrease from the control value, in per cent.
